# Test results taken from the supplement of paper PMC7826260.
# Some of the results follow. The data describe in vitro nicking of single-stranded DNA by Rep domains (3 µM enzyme, 1 h, 37 °C); shown is the middle of each 90-letter strand. Numbers give uncut DNA relative to the enzyme-free pool, as log2; the lower, the more was cut; hits are not called. Reads are scaled to the total; uncut strands gain when others are lost, and binding without cutting may add a little.
# System: T1, Rep nickase domain of Muscovy duck circovirus
# T1 sequence (protein, residues 1-111, tag omitted): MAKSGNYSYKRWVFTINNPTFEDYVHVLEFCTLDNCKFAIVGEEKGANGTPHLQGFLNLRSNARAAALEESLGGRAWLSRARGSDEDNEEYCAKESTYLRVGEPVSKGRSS
# Assay: uncleaved DNA left, log2 of reads against the no-enzyme library (log2 ratio); higher = less cleavage (more negative = more Rep cleavage of the k-mer); sequences stand for … in CTCGTCCG…ACCGGAGA
# Description: (§1)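 A pool of 90-nt single-stranded DNAs with seven random bases just before the constant AC of the nick site (name = the seven bases) was cut by 3 µM recombinant His6-SUMO-tagged Rep nickase domain (300 nM DNA, 50 mM HEPES pH 8.0, 50 mM NaCl, 1 mM MnCl2, 1 h, 37 °C, three replicates). Uncut DNA was amplified and sequenced.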
row,Sequence,uncleaved DNA left (log2)
1,GTCAGTA,0.031
2,CAAATTT,-0.158
3,CTCTTGA,-0.0873
4,ATTAATC,0.0234
5,ATTTATC,0.043
6,ACTGTTA,-0.124
7,CGGAGGC,0.0213
8,GACCTGC,-0.0796
9,TCAAGCT,0.0966
10,TGGCTGG,0.0349
11,TTCACCC,-0.0652
12,TACGCCC,-0.0579
13,TTTAGGA,0.0979
14,GATCTTT,-0.0105
15,CCAACCA,-0.152
16,TTACTCT,-0.0638
17,TATAAGG,0.128
18,ATTGTCT,-0.119
19,TCAGACC,0.0132
20,TGCCCTC,-0.0318

row,Sequence,uncleaved DNA left (log2)
1,ACGCATA,0.00116
2,AATAAGG,0.19
3,TTCGATT,0.0269
4,GGACGGC,-0.122
5,CCCTTGA,-0.118
6,TACGTGG,-0.0135
7,TATCCAG,0.115
8,GTGCGAT,0.0676
9,CGTATTG,-0.0505
10,TGCGTAA,-0.0278
11,TTTGCCT,0.0835
12,ATCGGAA,0.0374
13,CCGTGTC,-0.0631
14,GTTCCAG,0.048
15,CACGGAC,0.0881
16,CGCACAG,-0.00817
17,TTGAGCC,-0.0484
18,GACAGGG,0.0892
19,TTACTCA,-0.002
20,CTTCTGC,0.075

# System: T2, Rep nickase domain of banana bunchy top virus
# T2 sequence (protein, residues 1-94, tag omitted): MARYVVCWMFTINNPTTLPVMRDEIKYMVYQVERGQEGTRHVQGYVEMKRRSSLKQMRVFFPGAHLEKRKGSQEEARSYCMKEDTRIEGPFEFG
# Assay: as above
# Description: as §1
row,Sequence,uncleaved DNA left (log2)
1,GTCAGTA,0.14
2,CAAATTT,-0.632
3,CTCTTGA,-0.0278
4,ATTAATC,0.045
5,ATTTATC,0.131
6,ACTGTTA,-0.192
7,CGGAGGC,-0.0103
8,GACCTGC,-0.00748
9,TCAAGCT,0.0832
10,TGGCTGG,-0.163
11,TTCACCC,0.0405
12,TACGCCC,-0.205
13,TTTAGGA,0.0372
14,GATCTTT,0.00254
15,CCAACCA,0.14
16,TTACTCT,-0.00311
17,TATAAGG,0.0689
18,ATTGTCT,-0.195
19,TCAGACC,0.0325
20,TGCCCTC,-0.0188

row,Sequence,uncleaved DNA left (log2)
1,ACGCATA,-0.117
2,AATAAGG,0.163
3,TTCGATT,-0.0584
4,GGACGGC,0.0927
5,CCCTTGA,-0.0379
6,TACGTGG,-0.113
7,TATCCAG,0.119
8,GTGCGAT,-0.00349
9,CGTATTG,-0.0632
10,TGCGTAA,0.0393
11,TTTGCCT,-0.0741
12,ATCGGAA,0.0829
13,CCGTGTC,-0.164
14,GTTCCAG,0.0487
15,CACGGAC,0.0873
16,CGCACAG,-0.0336
17,TTGAGCC,0.0523
18,GACAGGG,0.117
19,TTACTCA,0.0425
20,CTTCTGC,-0.0152

# System: T3, Rep nickase domain of cabbage leaf curl virus
# T3 sequence (protein, residues 1-116, tag omitted): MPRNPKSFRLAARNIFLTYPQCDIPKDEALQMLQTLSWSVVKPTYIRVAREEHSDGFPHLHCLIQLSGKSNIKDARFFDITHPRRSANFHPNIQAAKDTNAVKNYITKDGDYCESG
# Assay: as above
# Description: as §1
row,Sequence,uncleaved DNA left (log2)
1,GTCAGTA,0.321
2,CAAATTT,-3.65
3,CTCTTGA,-0.331
4,ATTAATC,0.146
5,ATTTATC,0.224
6,ACTGTTA,-0.295
7,CGGAGGC,0.121
8,GACCTGC,-0.159
9,TCAAGCT,0.236
10,TGGCTGG,0.103
11,TTCACCC,0.226
12,TACGCCC,-0.33
13,TTTAGGA,0.162
14,GATCTTT,0.0894
15,CCAACCA,-0.178
16,TTACTCT,-0.322
17,TATAAGG,0.466
18,ATTGTCT,-0.568
19,TCAGACC,0.0344
20,TGCCCTC,0.305

row,Sequence,uncleaved DNA left (log2)
1,ACGCATA,-0.212
2,AATAAGG,0.115
3,TTCGATT,0.0498
4,GGACGGC,0.81
5,CCCTTGA,-0.187
6,TACGTGG,0.0418
7,TATCCAG,-0.562
8,GTGCGAT,0.00862
9,CGTATTG,-0.264
10,TGCGTAA,-0.421
11,TTTGCCT,-0.516
12,ATCGGAA,0.187
13,CCGTGTC,-0.192
14,GTTCCAG,0.243
15,CACGGAC,0.376
16,CGCACAG,-0.452
17,TTGAGCC,-0.136
18,GACAGGG,0.0194
19,TTACTCA,0.0288
20,CTTCTGC,-0.446

# System: T4, Rep nickase domain of chickpea chlorotic dwarf virus
# T4 sequence (protein, residues 1-124, tag omitted): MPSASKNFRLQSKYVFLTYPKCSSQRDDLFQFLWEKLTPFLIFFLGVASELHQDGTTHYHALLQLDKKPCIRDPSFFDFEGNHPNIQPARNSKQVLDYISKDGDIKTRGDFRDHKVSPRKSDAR
# Assay: as above
# Description: as §1
row,Sequence,uncleaved DNA left (log2)
1,GTCAGTA,0.831
2,CAAATTT,-3.46
3,CTCTTGA,-0.41
4,ATTAATC,0.0763
5,ATTTATC,0.437
6,ACTGTTA,-0.292
7,CGGAGGC,0.484
8,GACCTGC,-0.0393
9,TCAAGCT,0.738
10,TGGCTGG,0.486
11,TTCACCC,-0.947
12,TACGCCC,-0.79
13,TTTAGGA,0.424
14,GATCTTT,-1.26
15,CCAACCA,-2.11
16,TTACTCT,-2.96
17,TATAAGG,1.32
18,ATTGTCT,-1.99
19,TCAGACC,0.309
20,TGCCCTC,0.366

row,Sequence,uncleaved DNA left (log2)
1,ACGCATA,-0.823
2,AATAAGG,1.12
3,TTCGATT,-1.63
4,GGACGGC,1.72
5,CCCTTGA,-0.541
6,TACGTGG,-0.00922
7,TATCCAG,-0.568
8,GTGCGAT,0.264
9,CGTATTG,0.262
10,TGCGTAA,-0.578
11,TTTGCCT,-1.91
12,ATCGGAA,0.948
13,CCGTGTC,-0.193
14,GTTCCAG,0.556
15,CACGGAC,1.14
16,CGCACAG,-0.234
17,TTGAGCC,-0.257
18,GACAGGG,0.298
19,TTACTCA,-1.77
20,CTTCTGC,-0.661

# System: T5, Rep nickase domain of faba bean necrotic yellows virus
# T5 sequence (protein, residues 1-98, tag omitted): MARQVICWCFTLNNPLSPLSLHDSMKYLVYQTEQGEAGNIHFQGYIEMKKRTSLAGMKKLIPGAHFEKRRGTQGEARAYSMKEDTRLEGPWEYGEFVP
# Assay: as above
# Description: as §1
row,Sequence,uncleaved DNA left (log2)
1,GTCAGTA,0.106
2,CAAATTT,0.0716
3,CTCTTGA,0.0509
4,ATTAATC,0.0702
5,ATTTATC,0.0519
6,ACTGTTA,0.000157
7,CGGAGGC,-0.0418
8,GACCTGC,-0.103
9,TCAAGCT,0.142
10,TGGCTGG,-0.0466
11,TTCACCC,-0.0359
12,TACGCCC,-0.146
13,TTTAGGA,0.0789
14,GATCTTT,-0.00611
15,CCAACCA,0.121
16,TTACTCT,-0.0492
17,TATAAGG,0.0319
18,ATTGTCT,0.0495
19,TCAGACC,-0.0124
20,TGCCCTC,-0.0871

row,Sequence,uncleaved DNA left (log2)
1,ACGCATA,-0.051
2,AATAAGG,0.134
3,TTCGATT,0.148
4,GGACGGC,-0.13
5,CCCTTGA,-0.0573
6,TACGTGG,0.00742
7,TATCCAG,0.0923
8,GTGCGAT,0.0216
9,CGTATTG,-0.11
10,TGCGTAA,-0.0332
11,TTTGCCT,0.0273
12,ATCGGAA,-0.0437
13,CCGTGTC,-0.0202
14,GTTCCAG,-0.03
15,CACGGAC,0.101
16,CGCACAG,-0.0788
17,TTGAGCC,-0.113
18,GACAGGG,0.268
19,TTACTCA,-0.0585
20,CTTCTGC,0.0689
